Results reported in PubChem BioAssay AID1240 (Sanford-Burnham Center for Chemical Genomics, 2008).
The campaign covered roughly 50,000 compounds. About 800 (1.6%) showed an effect of 50% or more. This is one part of the list.

The compounds below were run against Bcl-2-like protein 10 (Homo sapiens) (UniProt Q9HD36) (assay: TR3 peptide-Bcl-B binding displacers, biochemical primary FP assay, phenotype converters (AID 1240;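 further: 0% = Bcl-B with tracer peptide and DMSO and 100% = tracer peptide lacking Bcl-B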)). Settings: GST-Bcl-B / FITC-TR3 peptide fluorescence polarization; stronger effect = higher value; compound at 3.75 mg/L.
Sequence of UniProt Q9HD36 (Q9HD36 whole entry, looked up): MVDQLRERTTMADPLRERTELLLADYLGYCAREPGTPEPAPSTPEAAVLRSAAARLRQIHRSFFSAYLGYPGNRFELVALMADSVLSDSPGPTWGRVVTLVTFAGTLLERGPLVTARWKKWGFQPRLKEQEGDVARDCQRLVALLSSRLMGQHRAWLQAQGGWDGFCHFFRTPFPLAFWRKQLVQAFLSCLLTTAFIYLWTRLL

Row | Compound | displacement
1 | COc1ccc(-c2cc(C(=O)N/N=C/c3c(C)[nH]c4ccccc34)[nH]n2)cc1 | -18.8%
2 | CC(C)(C)c1cc(N2C(=O)C(=O)/C(=C(/O)c3ccc(Cl)cc3)C2c2cccc([N+](=O)[O-])c2)no1 (centres undefined) | 2.7%
3 | O=C1NC(=S)N(c2cccc(Br)c2)C(=O)/C1=C\c1ccc(-c2ccccc2[N+](=O)[O-])o1 | 6%
4 | CC(=O)c1cccc(N2C(=O)C3CCCCC3C2=O)c1 (centres undefined) | -12.9%
5 | O=C(O)CCC(=O)Nc1cc(Cl)cc(Cl)c1 | -9.1%
6 | Fc1ccc(Cc2cnc(Nc3ccc(F)cc3)s2)cc1 | 10.6%
7 | CCN(C(=O)c1sc(NC(=O)c2ccc(Cl)cc2)c(C#N)c1C)C1CCCCC1 | -1.3%
8 | COc1ccccc1C(=O)N1CCN(Cc2ccccc2Cl)CC1 | -22.4%
9 | O=S(=O)(c1cc(Cl)ccc1Cl)N1CCC(Cc2ccccc2)CC1 | 0%
10 | CCc1cc2c(-c3ccccc3)cc(=O)oc2cc1OC(C)=O | -7.7%
11 | Cc1cc(C)c(C(=O)c2ccc(C(=O)Nc3cc(C)c(O)c(C)c3)cc2)c(C)c1 | -5.7%
12 | CCc1c(C)sc(NC(=O)c2cccc(Br)c2)c1C(N)=O | -4.4%
13 | O=[N+]([O-])c1ccc(C=Nc2ccc(OC(F)(F)F)cc2)cc1 | 8.2%
14 | O=C(NCCCO)/C(=C/c1ccc(-c2cccc([N+](=O)[O-])c2)o1)NC(=O)c1ccccc1 | 8.3%
15 | O=C(N/C(=C/c1ccc(Cl)cc1)c1nc2ccccc2[nH]1)c1ccccc1 | -0.7%
16 | Cc1cc(C)nc(NS(=O)(=O)c2ccc(N=Cc3c(C)[nH]n(-c4ccc(C)c(C)c4)c3=O)cc2)n1 | 45%
17 | CCCCCOC(=O)CSc1nnc(-c2ccc(Cl)cc2Cl)o1 | 6.7%
18 | O=C(O)c1cc(NC(=O)c2cccc(N3C(=O)c4ccccc4C3=O)c2)cc(C(=O)O)c1 | -19%
19 | COc1ccc(C(=O)N2CCN(C3CCCC3)CC2)cc1 | -11%
20 | Cc1cc(Cl)ccc1OCC(=O)O/N=C(\N)c1ccncc1 | -3.3%
21 | CC(=O)C(Sc1ccc(C)cc1)C(=O)c1ccccc1 (centres undefined) | 12.1%
22 | O=C(Nc1c(F)cc(F)cc1Br)c1cc2n(n1)C(C(F)(F)F)CC(c1ccc(Cl)cc1)N2 (centres undefined) | 2.2%
23 | CCC(Nc1ccc(Br)cc1)C(=O)N/N=C/c1ccc(Cl)cc1Cl (centres undefined) | 35.4%
24 | O=C(COc1ccc([N+](=O)[O-])cc1)Nc1cc(Cl)cc(Cl)c1 | -4.7%
25 | Cc1ccc(N2C(=O)CC(Sc3ccc4ccccc4c3)C2=O)cc1 (centres undefined) | -0.8%
26 | COc1ccccc1NC(=O)c1c(N)sc2c1CCC2 | 13.9%

Row | Compound | displacement
27 | Cc1oc2cc(Br)c(OC(=O)C(C)(C)C)cc2c1C(=O)OC(C)C | 9%
28 | Cc1ccc2sc(-c3ccc(NCc4ccc5c(c4)OCO5)cc3)nc2c1 | -0.2%
29 | COC(=O)c1c(C)oc2ccc(OCc3cccc(Br)c3)cc12 | 9.3%
30 | CN(C)S(=O)(=O)c1ccc(C(=O)Nc2nc(-c3ccccc3)c(-c3ccccc3)s2)cc1 | 27.8%
31 | COc1ccc(Cl)cc1S(=O)(=O)n1ccnc1C(C)C | -12.1%
32 | Clc1ccc(-c2noc(-c3ccc(-c4ccccc4)cc3)n2)cc1 | -1.7%
33 | O=C1C2C3c4ccccc4C(CO)(c4ccccc43)C2C(=O)N1c1ccc(Cl)c(Cl)c1 (centres undefined) | 0.4%
34 | O=C(NC(=S)Nc1nc(-c2ccccc2)cs1)c1ccco1 | 13.5%
35 | CCOC(=O)C(CCOc1ccc(C)cc1C)C(=O)OCC | -5.7%
36 | O=C(/C=C/c1cn(-c2ccccc2)nc1-c1ccc(Cl)cc1)c1cccs1 | 9%
37 | Cc1cc(C)cc(NC(=O)C(=O)NCc2cccnc2)c1 | 4.8%
38 | O=C1C(=Cc2ccc(Oc3ccc([N+](=O)[O-])cn3)cc2)C(=O)c2ccccc21 | 4.6%
39 | N#C/C(=C\c1ccc(-c2ccc3c(c2)COC3=O)o1)c1nc2ccccc2[nH]1 | 58.6%
40 | O=C(O)CCCCCN1C(=O)C(=O)/C(=C(/O)c2ccc([N+](=O)[O-])cc2)C1c1ccc(F)cc1 (centres undefined) | -0.4%
41 | NC(=O)C1(c2ccccc2)CCCN1C(=O)c1ccccc1Br (centres undefined) | -1.3%
42 | CCOC(=O)c1sc2nc3n(c(=O)c2c1C)CCC3 | 23.2%
43 | C=CCc1cccc2cc(C(=O)N3CCN(C)CC3)c(=O)oc12 | 1.9%
44 | O=C(Cn1cnc([N+](=O)[O-])n1)Nc1cc(Sc2ccc(Br)cc2)cc([N+](=O)[O-])c1 | -0.7%
45 | COC(=O)c1cc(NC(=O)c2cccc(OC(C)C)c2)cc(C(=O)OC)c1 | 0.7%
46 | CCN(CC)CCN1C(=O)C(O)=C(C(=O)/C=C/c2ccccc2)C1c1ccc(Cl)cc1 (centres undefined) | 15.9%
47 | CS(=O)(=O)N(Cc1ccc(C(=O)Nc2ccc(F)cc2)cc1)c1ccccc1 | 5.7%
48 | COc1ccc(C(=O)/C=C\Nc2ccc(Cl)cn2)cc1 | -23.9%
49 | CC(=O)/C(C=Nc1cc(C(F)(F)F)ccc1Cl)=C(\C)O | -4.5%
50 | COc1ccc(S(=O)(=O)N=C2C=CC(=NS(=O)(=O)c3ccc(OC)cc3)C=C2)cc1 | -1.8%
51 | Cc1ccc(-c2[nH]n3c(=O)cc(-c4ccc([N+](=O)[O-])cc4)nc3c2C)cc1 | 7.6%
52 | O=C(/C=C/c1cccc(C(F)(F)F)c1)Nc1ccc(Cl)cc1 | 13.9%

Row | Compound | displacement
53 | CCC1=NN2C(=N)/C(=C/c3ccc(Br)cc3)C(=O)N=C2S1 | 4%
54 | N#Cc1cc2c(nc1SCC(=O)Nc1ccc(S(N)(=O)=O)cc1)CCCC2 | 4.3%
55 | O=C(Nc1cnc2ccccc2c1)C1COc2ccccc2O1 (centres undefined) | -15.1%
56 | COc1cccc(C(=O)N2CCOCC2)c1 | 2.3%
57 | COc1ccccc1NC(=O)c1ccc(N(Cc2ccccc2)S(C)(=O)=O)cc1 | -6.5%
58 | Cc1nnc(/N=C2\C(=O)Nc3ccccc32)s1 | -6%
59 | COC(=O)c1ccccc1NC(=O)CN(c1cccc(OC)c1)S(=O)(=O)c1ccccc1 | 2.4%
60 | Cc1cccc(NCCC(=O)c2ccc([N+](=O)[O-])cc2)c1C | -13%
61 | COc1ccccc1N1C(=O)c2ccc(C(=O)Nc3ccc(Sc4ccc([N+](=O)[O-])cc4)cc3)cc2C1=O | 6.8%
62 | Cc1ccc(N=Cc2ccc(C#N)cc2)cc1I | 0.3%
63 | O=C(CC1SC(=Nc2ccccc2)N(c2ccccc2)C1=O)Nc1cccc(Cl)c1 (centres undefined) | -16.4%
64 | Cn1c(=O)c([N+](=O)[O-])c(N2CCN(C(c3ccccc3)c3ccccc3)CC2)c2ccccc21 | 9.5%
65 | O=C1NC(=S)S/C1=C/c1cc(I)c(O)c(I)c1 | -96.1%
66 | CCOc1cc(/C=N\n2cnnc2)ccc1OCCOCCOc1ccc(C)cc1 | -3.1%
67 | O=C(NCCO)/C(=C\c1ccco1)NC(=O)c1cccs1 | -6.8%
68 | Cc1c(NC(=O)c2cc3cc([N+](=O)[O-])ccc3oc2=O)c(=O)n(-c2ccccc2)n1C | 1.1%
69 | O=C(Nc1sc2c(c1C(=O)Nc1ccc(Cl)cc1)CCCC2)c1ccc([N+](=O)[O-])cc1 | 13.2%
70 | O=C1C2C3C=CC(C3=C(c3ccccc3)c3ccccc3)C2C(=O)N1c1cc(C(F)(F)F)ccc1Cl (centres undefined) | -9.1%
71 | CSc1ccccc1NC(=O)c1ccc([N+](=O)[O-])cc1 | 10.7%
72 | COc1cc2c(C)nc3c(c(C)nn3-c3ccccc3)c2cc1OC | 59.5%
73 | COCCNC(=O)CN(c1ccc(C)cc1)S(=O)(=O)c1ccc(OC)c(OC)c1 | 5.4%
74 | CCOC(=O)c1c(C)nc2cc(C)ccn12 | 9.8%
75 | O=C(COc1ccc2ccccc2c1Br)c1ccc(Br)cc1 | 4.5%
76 | CN1C(=O)C(=Cc2cc([N+](=O)[O-])ccc2O)C(=O)N(C)C1=O | 16.6%
77 | O=C(CSc1nnc(-c2ccncc2)n1-c1ccccc1)NCc1ccco1 | -0.5%
78 | COC(=O)Nc1ccc(S(=O)(=O)N2CCN(C)CC2)cc1 | 2.5%

Row | Compound | displacement
79 | O=c1oc2cc(OCc3ccc([N+](=O)[O-])cc3)ccc2c2c1CCC2 | -2.5%
80 | Cc1ccc(-c2[nH]n3c(=O)c(Cl)c(C)nc3c2C)cc1 | -9%
81 | O=C(NCC1COc2ccccc2O1)c1ccccc1 (centres undefined) | 2.1%
82 | Cc1onc(-c2ccccc2Cl)c1C(=O)Nc1ccc2c(c1)OCO2 | 0.2%
83 | Cc1cccc(NC(=O)C2CC(=O)N(c3ccccc3)C2)c1 (centres undefined) | -3%
84 | O=C(O)CCC(=O)NNc1ccccc1[N+](=O)[O-] | -8.9%
85 | Cc1ccc2nc(-c3ccc(NC(=O)C4CCC(C)(C(=O)O)C4(C)C)cc3)sc2c1 (centres undefined) | -5.5%
86 | CCOC(=O)C1=C(C)N=c2s/c(=C\c3ccc(OC(C)=O)cc3OC(C)=O)c(=O)n2C1c1ccccc1 (centres undefined) | -9.4%
87 | O=C1CC(NCc2ccc(Cl)cc2)C(=O)N1c1ccc(Br)cc1 (centres undefined) | -4.5%
88 | O=C1CC(c2ccccc2)CC(O)=C1C=Nc1ccc(Cl)cc1C(=O)c1ccccc1 (centres undefined) | -8.3%
89 | N/C(=N\OC(=O)COc1ccc2ccccc2c1)c1cccc([N+](=O)[O-])c1 | 3.6%
90 | O=C(O)C1C2CCCC1C2c1ccccc1 (centres undefined) | -1.9%
91 | O=C(Nc1ccc(F)cc1)c1cc2ccccc2oc1=O | 12.8%
92 | O=C(CSCC(=O)Nc1ccccc1[N+](=O)[O-])Nc1ccc2ccccc2c1 | 10.1%
93 | CCc1nnc(NS(=O)(=O)c2ccc(NS(=O)(=O)c3ccc4ccccc4c3)cc2)s1 | 5.8%
94 | C/C(=C/C(=O)c1ccc(Cl)cc1)Nc1cccc(O)c1 | 8.2%
95 | O=C(CCN1C(=O)/C(=C/c2ccc(Cl)cc2)SC1=S)Nc1nccs1 | 14.9%
96 | CCN(CC)C1=NC(C(F)(F)F)(C(F)(F)F)N=C(OC(C)C)O1 | -7.3%
97 | CCOc1ccc(Nc2nc(-c3ccccn3)cs2)cc1 | -13.9%
98 | O=C1C2=C(NC3=C(C(=O)c4ccccc43)C23C(=O)Nc2ccccc23)c2ccccc21 | 13%
99 | COc1cccc(OCCn2cc(/C=C3/SC(=S)NC3=O)c3ccccc32)c1 | -15.1%
100 | O=C(O)c1ccccc1NC1=C(Cl)C(=O)N(c2ccc(Br)cc2)C1=O | 16%
101 | C=CCn1c(=S)[nH]c2sc3c(c2c1=O)CCC(C)C3 (centres undefined) | 13.2%
102 | Cc1cc2nc(Nc3nc(O)cc(=O)[nH]3)nc(C)c2cc1C | -19.4%
103 | Cc1sc(/N=C/c2c(O)ccc3ccccc23)c(C#N)c1C | 2.9%
104 | COc1ccc(S(=O)(=O)N2CCN(Cc3ccccc3F)CC2)cc1 | -10.9%
